Data from PubChem BioAssay AID2147 (National Center for Advancing Translational Sciences (NCATS), 2009).
Hit rate of the full screen: of about 230,000 compounds, about 3,600 (1.6%) were called active. Inconclusive results, whose numbers are uncertain, are shown with a selection of clear calls. The call rests on the fitted dose curve; in most records, active means well fitted inhibition curve with a large enough effect (not every such curve was filed as active); inconclusive means small, poorly fitted or top-dose-only effect, or another doubt; inactive means no such curve, though single readings can be large or run the other way. A potency beside an inconclusive call is a rough fit, not a confirmed value. Some structures have more than one record in an assay (separate samples or runs), and their calls can disagree.

What follows are molecules tested against Lysine-specific demethylase 4E (Homo sapiens) (UniProt B2RXH2) (assay: qHTS Assay for Inhibitors of Human Jumonji Domain Containing 2E (JMJD2E)). Details: JMJD2E catalytic domain, FDH-coupled NADH fluorescence (FDH is formaldehyde dehydrogenase); series mostly up to 57.1 µM; activity change, negative = inhibition: at the top concentration.
Further: nearly all actives have a fitted effect of over 50% in size.
Potency means the concentration at half of the fitted maximal effect; tags describe the fitted curve by direction and shape.
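Wherever activity change, negative = inhibition is given: 0% = wells with enzyme and -100% = buffer wells without enzyme.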

Sequence of UniProt B2RXH2 (B2RXH2 whole entry, looked up, the tested form may be a part): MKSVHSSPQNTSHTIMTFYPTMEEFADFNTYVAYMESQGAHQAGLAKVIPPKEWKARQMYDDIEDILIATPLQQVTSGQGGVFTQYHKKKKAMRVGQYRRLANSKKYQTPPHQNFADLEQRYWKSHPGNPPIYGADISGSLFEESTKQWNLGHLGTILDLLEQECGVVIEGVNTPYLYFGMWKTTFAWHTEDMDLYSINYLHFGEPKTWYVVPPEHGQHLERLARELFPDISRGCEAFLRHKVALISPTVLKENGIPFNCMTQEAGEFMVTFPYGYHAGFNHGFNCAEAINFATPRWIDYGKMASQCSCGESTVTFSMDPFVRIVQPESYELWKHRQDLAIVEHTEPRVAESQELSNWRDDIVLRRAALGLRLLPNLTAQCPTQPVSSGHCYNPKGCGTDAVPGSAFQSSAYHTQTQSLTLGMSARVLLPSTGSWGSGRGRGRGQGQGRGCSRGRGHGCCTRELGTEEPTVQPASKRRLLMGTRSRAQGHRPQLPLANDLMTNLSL

| SMILES | Potency | activity change, negative = inhibition |
| --- | --- | --- |
| C#CCNC(=O)C1=C[C@H](c2coc3ccccc3c2=O)C[C@H](OCc2ccc(CO)cc2)O1 | inconclusive: 1.12 µM [inhibitor, single point] |  |
| Cc1ccc(-c2nn(-c3ccccc3)cc2CN(Cc2ccccc2)C(=O)c2ccco2)o1 |  | inactive: -7.27% |
| COc1ccc2[nH]c(=O)c(CN(C)C(=O)c3cccs3)cc2c1 | inconclusive: 35.5 µM [inhibitor, partial curve] |  |
| Cc1c(NC(=O)C(C)OC(=O)/C=C/c2ccc3c(c2)OCO3)c(=O)n(-c2ccccc2)n1C (stereo unspecified) | inconclusive: 31.6 µM [inhibitor, partial curve] |  |
| COCCN1Cc2cc3cc(C)ccc3nc2SC1=Nc1cccc(OC)c1 | inconclusive: 31.6 µM [inhibitor, single point] |  |
| CC(=O)Oc1c(-c2ccco2)oc2ccccc2c1=O | inconclusive: 25.1 µM [inhibitor, partial curve] |  |
| CC1=CC(c2ccc(Cl)cc2)n2nc(NC(=O)CCC(=O)O)nc2N1 (stereo unspecified) | inconclusive: 28.2 µM [inhibitor, partial curve] |  |
| CCCC1(C(=O)O)NC(c2cccc(OC)c2O)C2C(=O)N(c3ccccc3)C(=O)C21 (stereo unspecified) | inconclusive: 31.6 µM [inhibitor, single point] |  |
| CCOC(=O)c1[nH]c2cc(OC)c(OC)cc2c1NC(=O)CCN1CCSCC1 | inconclusive: 25.1 µM [inhibitor, partial curve] |  |
| CC(C)c1ccc(NC(=O)c2sccc2-n2cccc2)cc1 |  | inactive: -1.62% |
| CCCN(CCC)CCNC(=O)c1cc2c(C)nc3ccccc3c2o1 | inconclusive: 39.8 µM [inhibitor, single point] |  |
| CCOc1ccccc1C(=O)N1CCOCC1 |  | inactive: 3.48% |
| COC(=O)c1cc(OC)c(OC)cc1NC(=O)c1ccc(OC)cc1 | inconclusive: 39.8 µM [inhibitor, single point] |  |
| O=C(c1cccs1)n1nc(-c2ccccc2)nc1NCc1ccco1 | inconclusive: 39.8 µM [inhibitor, single point] |  |
| CC1(C)Cc2nc3oc4c(NCc5ccccc5)ncnc4c3cc2CO1 | inconclusive: 2.82 µM [inhibitor, partial curve] |  |
| Cc1ccccc1-c1nnc(-c2cccs2)o1 | inconclusive: 7.94 µM [inhibitor, partial curve] |  |
| COCc1cc(C)[nH]c(=O)c1C#N | inconclusive: 28.2 µM [inhibitor, partial curve] |  |
| Cc1ccc2nc(NCC(=O)O)nc(-c3ccccc3)c2c1 | inconclusive: 28.2 µM [inhibitor, partial curve] |  |
| N#CC1=C(N)N2C(=C(C#N)C1c1ccccc1)Sc1ccccc12 (stereo unspecified) |  | inactive: -11.9% |
| COc1ccccc1OC[C@H](O)COC(N)=O | inconclusive: 15.8 µM [inhibitor, single point] |  |
| COc1ccc(/C(O)=C2/C(=O)C(=O)N(CCN3CCOCC3)C2c2cccnc2)cc1OC (stereo unspecified) | inconclusive: 31.6 µM [inhibitor, single point] |  |
| O=C(Nc1ccccc1N1CCN(C(=O)c2ccc(Cl)cc2)CC1)c1cc2ccccc2o1 | inconclusive: 31.6 µM [inhibitor, single point] |  |
| Cc1cc(Cl)c(S(=O)(=O)Nc2ccccn2)cc1OCC(N)=O | inconclusive: 31.6 µM [inhibitor, partial curve] |  |
| Cc1c(C(=O)N/N=C/c2ccc(N3CCOCC3)cc2)nc2ccccn12 | inconclusive: 28.2 µM [inhibitor, partial curve] |  |

| SMILES | Potency | activity change, negative = inhibition |
| --- | --- | --- |
| CC1=Nn2c(nnc2C2CCCCC2)SC1 |  | inactive: 11.1% |
| COC(=O)CCCC1=CC2=C(c3ccccc3)C(=O)C(C)(OC(=O)C3CCCC3)C(=O)C2=CN1CC(C)C (stereo unspecified) | active: 17.8 µM | inactive: -27.9% [at 11.4 µM] |
| CC(C)N1CCc2c(sc(N)c2C#N)C1 | inconclusive: 31.6 µM [inhibitor, partial curve] |  |
| O=C(CN1C(=O)CSc2ccccc21)NCCC1=CCCCC1 |  | inactive: -8.34% |
| NNC(=O)c1ccc(COc2cccc3cccnc23)cc1 | inconclusive: 39.8 µM [inhibitor, single point] |  |
| O=C(O)c1ccc(NC2=Nc3cccc4cccc2c34)cc1 | inconclusive: 35.5 µM [inhibitor, single point] |  |
| c1ccc(C2(CNc3ccccn3)CCCC2)cc1 | inconclusive: 28.2 µM [inhibitor, single point] |  |
| CCCC1O[C@@H]2C[C@H]3[C@@H]4CCC5=CC(=O)C=C[C@]5(C)[C@H]4[C@@H](O)C[C@]3(C)[C@]2(C(=O)CO)O1 (stereo partly specified) |  | inactive: -25.1% |
| COc1cc(C2C(C(=O)c3ccco3)=C(O)C(=O)N2Cc2cccnc2)cc(OC)c1OC (stereo unspecified) |  | inactive: -0.979% |
| CCN(CC)c1nc(C)c2c(c1C#N)CC(C)(C)OC2 | inconclusive: 25.1 µM [inhibitor, partial curve] |  |
| COc1ccc(N=Cc2cc(Cc3ccccc3Cl)cc([N+](=O)[O-])c2O)cc1OC | inconclusive: 25.1 µM [inhibitor, single point] |  |
| c1ccn2c(c1)nc1c2nc2ccccn21 | inconclusive: 31.6 µM [inhibitor, partial curve] |  |
| O=c1[nH]c(=O)c2nnc(N/N=C/c3ccccc3F)nc2[nH]1 |  | inactive: 0.913% |
| Cc1ccc(NC2=CC(=O)C(=O)c3ccccc32)cc1 | active: 14.1 µM |  |
| O=C(CSc1nnnn1-c1ccc2c(c1)OCCO2)OC1CCCCC1 |  | inactive: -7.82% |
| COc1ccc(NC(=O)CSc2nc3ccsc3c(=O)n2CCCCCC(=O)O)cc1 |  | inactive: -1.2% |
| CCN(C(=O)COC(=O)c1cc(-c2ccccc2)nc2c1c(C)nn2-c1ccccc1)C1CCS(=O)(=O)C1 (stereo unspecified) | inconclusive: 12.6 µM [inhibitor, partial curve] |  |
| CCOc1ccc(C2Nc3ccc4ccccc4c3-c3c2c(=O)oc2ccccc32)cc1 (stereo unspecified) | inconclusive: 7.94 µM [inhibitor, partial curve] |  |
| COc1ccccc1NC(=S)N(CCCN1CCOCC1)Cc1cn(C)c2ccccc12 |  | inactive: -1.21% |
| CCCn1c(NC(=O)c2ccc(F)cc2)nc2ccccc21 | inconclusive: 31.6 µM [inhibitor, partial curve] |  |
| O=[N+]([O-])c1ccc(N2CCN(C(=S)NCc3ccc(Cl)cc3)CC2)cc1 |  | inactive: -4.12% |
| CS(=O)(=O)c1sc(C#N)c2c1C(=O)CC(c1ccccc1)C2 (stereo unspecified) | inconclusive: 39.8 µM [inhibitor, single point] |  |
| COc1cc(Br)cc(CN2CCN(C/C=C/c3ccccc3)CC2)c1O |  | inactive: -0.156% |
| Cc1cccc(N(C(=O)CCC(=O)Nc2cccnc2)C(C(=O)NC2CCCC2)c2ccncc2)c1 (stereo unspecified) | inconclusive: 39.8 µM [inhibitor, single point] |  |

| SMILES | Potency | activity change, negative = inhibition |
| --- | --- | --- |
| CSc1nc2oc3c(c2c2nncn12)CC(C)(C)SC3 | inconclusive: 12.6 µM [inhibitor, partial curve] |  |
| COc1ccc(CCNC(=O)c2c(C)nc3ccccn23)cc1OC | inconclusive: 35.5 µM [inhibitor, single point] |  |
| COc1ccc(NS(=O)(=O)c2cc(NC(=O)CC3CCCC3)ccc2N2CCOCC2)cc1 | inconclusive: 25.1 µM [inhibitor, single point] |  |
| CCC1CCCN1Cn1cnc2c([nH]c3ccc(OC)cc32)c1=O (stereo unspecified) | inconclusive: 35.5 µM [inhibitor, single point] |  |
| c1ccc(C(c2nnnn2C2CCCC2)N2CCN(c3nc4ccccc4s3)CC2)cc1 (stereo unspecified) |  | inactive: 0.586% |
| O=C(NCC1CCS(=O)(=O)C1)NCC1CCS(=O)(=O)C1 (stereo unspecified) | inconclusive: 28.2 µM [inhibitor, single point] |  |
| CC(C)CC(=O)Nc1ncc([N+](=O)[O-])s1 |  | inactive: -10.7% |
| C=CCn1cnc2c(c1=O)c1nc3ccccc3nc1n2-c1ccccc1 | inconclusive: 8.91 µM [inhibitor, single point] |  |
| Cc1cccc2cc(CN(Cc3ccco3)C(=O)NC3CCCCC3)c(=O)[nH]c12 | inconclusive: 25.1 µM [inhibitor, single point] |  |
| COc1cccc(NC(=O)CSc2nc3c(sc4ccccc43)c(=O)n2CCN(C)C)c1 | inconclusive: 17.8 µM [inhibitor, partial curve] |  |
| CCOC(=O)COc1ccc2nsnc2c1Cl | inconclusive: 25.1 µM [inhibitor, partial curve] |  |
| CCCCCCCOC(=O)C[N+](C)(C)CCOC1CC2CCC1(C)C2(C)C (stereo unspecified) |  | inactive: -12.7% |
| Cc1ccc(-n2nnnc2SCC(=O)c2ccc3c(c2)NC(=O)CO3)c(C)c1 |  | inactive: -6.79% |
| COc1ccccc1N1CCN(C(c2cc3ccc(C)cc3[nH]c2=O)c2nnnn2C2CCCC2)CC1 (stereo unspecified) | inconclusive: 39.8 µM [inhibitor, single point] |  |
| O=C(NC1CC2CCCC(C1)N2S(=O)(=O)c1ccccc1)c1ccccc1 (stereo unspecified) |  | inactive: 10.7% |
| COCc1cc(=O)[nH]c(Nc2nc3ccc(C)cc3o2)n1 |  | inactive: -4.2% |
| NC(=O)COc1ccccc1C(=O)O | inconclusive: 0.794 µM [inhibitor, partial curve] |  |
| CCOC(=O)c1c(-c2ccccc2)oc2ccc(OC)cc12 | inconclusive: 28.2 µM [inhibitor, partial curve] |  |
| O=C(N/N=C/c1cc2c(cc1Cl)OCO2)c1ccc2c(c1)OCCO2 | inconclusive: 31.6 µM [inhibitor, single point] |  |
| CCN1C(=O)/C(=C\c2ccc(-c3ccc([N+](=O)[O-])cc3OC)o2)SC1=Nc1cccc(C(=O)O)c1 |  | inactive: -25.3% |
| Cc1cc(C)n2nc(-c3ccccc3)cc2n1 | inconclusive: 31.6 µM [inhibitor, partial curve] |  |
| CN1c2ccsc2C(O)=C(C(=S)Nc2ccc(F)c(Cl)c2)S1(=O)=O | inconclusive: 17.8 µM [inhibitor, partial curve] |  |
